{
  "source": "patent US8067379B2",
  "about": "“Sulfur compounds as inhibitors of hepatitis C virus NS3 serine protease” (Schering Corporation, priority 2004, dated 2011)",
  "data": [
    {"target": "Recombinant heterodimeric HCV NS3/NS4A protease (strain 1a) (Hepatitis C virus genotype 1a, UniProt P27958)", "assay": "Spectrophotometric assay for HCV serine protease inhibitory activity (chromogenic ester substrates)", "format": "biochemical", "settings": "Table 3, sulfone compounds, rows without Prep. Ex. number; read-out: Ki* range (class symbol, unlabelled structures at end of sulfone table, column without head)", "units": {"Ki": "µM"}, "values": [
      {"molecule": "C=CCNC(=O)C(=O)C(CC1CC1)NC(=O)[C@@H]1[C@@H]2[C@H](CN1C(=O)[C@@H](NC(=O)NC1(CS(=O)(=O)C(C)(C)C)CCCCC1)C(C)(C)C)[C@@H]2c1ccccc1", "note": "(stereo partly drawn) [drawing 650]", "Ki": "> 0.25"}
    ]},
    {"target": "Recombinant heterodimeric HCV NS3/NS4A protease (strain 1a) (Hepatitis C virus genotype 1a, UniProt P27958)", "assay": "Spectrophotometric assay for HCV serine protease inhibitory activity (chromogenic ester substrates)", "format": "biochemical", "settings": "Table 4A; read-out: Ki* Range", "units": {"Ki": "µM"}, "values": [
      {"molecule": "C=CCNC(=O)C(=O)C(CCC)NC(=O)[C@@H]1[C@@H]2[C@H](CN1C(=O)[C@@H](NC(=O)N[C@H]([C@H]1CCN(Cc3ccc(OC)cc3)S1(=O)=O)C(C)(C)C)C1(C)CCCCC1)C2(C)C", "note": "(stereo partly drawn) [Compound 1113]", "Ki": "> 0.25"},
      {"molecule": "C=CCNC(=O)C(=O)C(CCCC)NC(=O)[C@@H]1[C@@H]2[C@H](CN1C(=O)[C@@H](NC(=O)N[C@H]([C@H]1CCN(Cc3ccc(OC)cc3)S1(=O)=O)C(C)(C)C)C1(C)CCCCC1)C2(C)C", "note": "(stereo partly drawn) [Compound 1114]", "Ki": "> 0.25"},
      {"molecule": "C=CCNC(=O)C(=O)C(CC1CC1)NC(=O)[C@@H]1[C@@H]2[C@H](CN1C(=O)[C@@H](NC(=O)N[C@H]([C@H]1CCN(Cc3ccc(OC)cc3)S1(=O)=O)C(C)(C)C)C1(C)CCCCC1)C2(C)C", "note": "(stereo partly drawn) [Compound 1115]", "Ki": "> 0.25"},
      {"molecule": "C#CCCC(NC(=O)[C@@H]1[C@@H]2[C@H](CN1C(=O)[C@@H](NC(=O)N[C@H]([C@H]1CCN(Cc3ccc(OC)cc3)S1(=O)=O)C(C)(C)C)C1(C)CCCCC1)C2(C)C)C(=O)C(=O)NCC=C", "note": "(stereo partly drawn) [Compound 1116]", "Ki": "> 0.25"},
      {"molecule": "C=CCNC(=O)C(=O)C(CC1CCC1)NC(=O)[C@@H]1[C@@H]2[C@H](CN1C(=O)[C@@H](NC(=O)N[C@H]([C@H]1CCN(Cc3ccc(OC)cc3)S1(=O)=O)C(C)(C)C)C1(C)CCCCC1)C2(C)C", "note": "(stereo partly drawn) [Compound 1117]", "Ki": "> 0.25"},
      {"molecule": "C=CCNC(=O)C(=O)C(CCC)NC(=O)[C@@H]1[C@@H]2[C@H](CN1C(=O)[C@@H](NC(=O)N[C@@H]([C@@H]1CCN(Cc3ccc(OC)cc3)S1(=O)=O)C(C)(C)C)C1(C)CCCCC1)C2(C)C", "note": "(stereo partly drawn) [Compound 1118]", "Ki": "> 0.25"},
      {"molecule": "C=CCNC(=O)C(=O)C(CCCC)NC(=O)[C@@H]1[C@@H]2[C@H](CN1C(=O)[C@@H](NC(=O)N[C@@H]([C@@H]1CCN(Cc3ccc(OC)cc3)S1(=O)=O)C(C)(C)C)C1(C)CCCCC1)C2(C)C", "note": "(stereo partly drawn) [Compound 1119]", "Ki": "> 0.25"},
      {"molecule": "C#CCCC(NC(=O)[C@@H]1[C@@H]2[C@H](CN1C(=O)[C@@H](NC(=O)N[C@@H]([C@@H]1CCN(Cc3ccc(OC)cc3)S1(=O)=O)C(C)(C)C)C1(C)CCCCC1)C2(C)C)C(=O)C(=O)NCC=C", "note": "(stereo partly drawn) [Compound 1121]", "Ki": "> 0.25"}
    ]}
  ]
}
